# The other results are listed elsewhere or left out.
# Columns and labels:
# Experiment in all cases: glycan array binding signal (z-score within array); higher = stronger binding
# Conditions in all cases: glycan notation: IUPAC condensed, linker removed
# [1] = molecular target: Neu5Ac(a2-6)Gal(b1-4)GlcNAc(b1-2)Man(a1-3)[Neu5Ac(a2-3)Gal(b1-4)GlcNAc(b1-2)Man(a1-6)]Man(b1-4)GlcNAc(b1-4)GlcNAc
# In short: (§1)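 The binding signal is a Z-score computed within each array and averaged over linkers. Arrays of the same protein sequence at different concentrations or buffers were also averaged together. Data originate from 3228 arrays in the Consortium for Functional Glycomics database, kept only where the protein sequence was available.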
# [2] = molecular target: Neu5Ac(a2-6)Gal(b1-4)GlcNAc(b1-2)Man(a1-3)[Neu5Ac(a2-6)Gal(b1-4)GlcNAc(b1-2)Man(a1-6)]Man(b1-4)GlcNAc(b1-4)GlcNAc
# In short: as §1
# [3] = molecular target: Neu5Ac(a2-6)Gal(b1-4)GlcNAc(b1-2)Man(a1-3)[Neu5Ac(a2-6)Gal(b1-4)GlcNAc(b1-2)Man(a1-6)]Man(b1-4)GlcNAc(b1-4)[Fuc(a1-6)]GlcNAc
# In short: as §1
# [4] = molecular target: Neu5Ac(a2-6)Gal(b1-4)GlcNAc(b1-2)Man(a1-6)Man(b1-4)GlcNAc(b1-4)GlcNAc
# In short: as §1
# [5] = molecular target: Neu5Ac(a2-6)Gal(b1-4)GlcNAc(b1-2)Man(a1-6)[Gal(b1-4)GlcNAc(b1-2)Man(a1-3)]Man(b1-4)GlcNAc(b1-4)GlcNAc
# In short: as §1
# [6] = molecular target: Neu5Ac(a2-6)Gal(b1-4)GlcNAc(b1-2)Man(a1-6)[GlcNAc(b1-2)Man(a1-3)]Man(b1-4)GlcNAc(b1-4)GlcNAc
# In short: as §1
# [7] = molecular target: Neu5Ac(a2-6)Gal(b1-4)GlcNAc(b1-2)Man(a1-6)[Man(a1-3)]Man(b1-4)GlcNAc(b1-4)GlcNAc
# In short: as §1
# [8] = molecular target: Neu5Ac(a2-6)Gal(b1-4)GlcNAc(b1-2)[Neu5Ac(a2-6)Gal(b1-4)GlcNAc(b1-4)]Man(a1-3)[GlcNAc(b1-4)][Neu5Ac(a2-6)Gal(b1-4)GlcNAc(b1-2)[Neu5Ac(a2-6)Gal(b1-4)GlcNAc(b1-6)]Man(a1-6)]Man(b1-4)GlcNAc(b1-4)GlcNAc
# In short: as §1
# [9] = molecular target: Neu5Ac(a2-6)Gal(b1-4)GlcNAc(b1-2)[Neu5Ac(a2-6)Gal(b1-4)GlcNAc(b1-4)]Man(a1-3)[GlcNAc(b1-4)][Neu5Ac(a2-6)Gal(b1-4)GlcNAc(b1-4)Man(a1-6)]Man(b1-4)GlcNAc(b1-4)GlcNAc
# In short: as §1
# [10] = molecular target: Neu5Ac(a2-6)Gal(b1-4)GlcNAc(b1-2)[Neu5Ac(a2-6)Gal(b1-4)GlcNAc(b1-6)]Man(a1-6)[Neu5Ac(a2-6)Gal(b1-4)GlcNAc(b1-2)Man(a1-3)][GlcNAc(b1-4)]Man(b1-4)GlcNAc(b1-4)GlcNAc
# In short: as §1
# [11] = molecular target: Neu5Ac(a2-6)Gal(b1-4)GlcNAc(b1-3)Gal(b1-3)GlcNAc
# In short: as §1
# [12] = molecular target: Neu5Ac(a2-6)Gal(b1-4)GlcNAc(b1-3)Gal(b1-4)GlcNAc
# In short: as §1
# [13] = molecular target: Neu5Ac(a2-6)Gal(b1-4)GlcNAc(b1-3)Gal(b1-4)GlcNAc(b1-2)Man(a1-3)[Neu5Ac(a2-6)Gal(b1-4)GlcNAc(b1-3)Gal(b1-4)GlcNAc(b1-2)Man(a1-6)]GalNAc
# In short: as §1
# [14] = molecular target: Neu5Ac(a2-6)Gal(b1-4)GlcNAc(b1-3)Gal(b1-4)GlcNAc(b1-3)Gal(b1-4)GlcNAc
# In short: as §1
# [15] = molecular target: Neu5Ac(a2-6)Gal(b1-4)GlcNAc(b1-3)Gal(b1-4)GlcNAc(b1-3)Gal(b1-4)GlcNAc(b1-2)Man(a1-3)[Neu5Ac(a2-6)Gal(b1-4)GlcNAc(b1-3)Gal(b1-4)GlcNAc(b1-3)Gal(b1-4)GlcNAc(b1-2)Man(a1-6)]GalNAc
# In short: as §1
# [16] = molecular target: Neu5Ac(a2-6)Gal(b1-4)GlcNAc(b1-3)Gal(b1-4)GlcNAc(b1-3)GalNAc
# In short: as §1
# [17] = molecular target: Neu5Ac(a2-6)Gal(b1-4)GlcNAc(b1-3)Gal(b1-4)GlcNAc(b1-3)[Neu5Ac(a2-6)Gal(b1-4)GlcNAc(b1-3)Gal(b1-4)GlcNAc(b1-6)]GalNAc
# In short: as §1
# [18] = molecular target: Neu5Ac(a2-6)Gal(b1-4)GlcNAc(b1-3)Gal(b1-4)GlcNAc(b1-6)[Gal(b1-3)]GalNAc
# In short: as §1
# [19] = molecular target: Neu5Ac(a2-6)Gal(b1-4)GlcNAc(b1-3)Gal(b1-4)[Fuc(a1-3)]GlcNAc(b1-3)Gal(b1-4)[Fuc(a1-3)]GlcNAc
# In short: as §1
# [20] = molecular target: Neu5Ac(a2-6)Gal(b1-4)GlcNAc(b1-3)GalNAc
# In short: as §1
# [21] = molecular target: Neu5Ac(a2-6)Gal(b1-4)GlcNAc(b1-3)[Neu5Ac(a2-6)Gal(b1-4)GlcNAc(b1-6)]GalNAc
# In short: as §1
# [22] = molecular target: Neu5Ac(a2-6)Gal(b1-4)GlcNAc(b1-6)GalNAc
# In short: as §1
# [23] = molecular target: Neu5Ac(a2-6)Gal(b1-4)GlcNAc(b1-6)[Gal(b1-3)GlcNAc(b1-3)]Gal(b1-4)Glc
# In short: as §1
# [24] = molecular target: Neu5Ac(a2-6)Gal(b1-4)GlcNAc(b1-6)[Gal(b1-3)]GalNAc
# In short: as §1
# [25] = molecular target: Neu5Ac(a2-6)Gal(b1-4)GlcNAc6S
# In short: as §1
# Neu5Ac(a2-6)GalNAc = molecular target: Neu5Ac(a2-6)GalNAc
# In short: as §1
# [26] = molecular target: Neu5Ac(a2-6)GalNAc(b1-4)GlcNAc
# In short: as §1
# [27] = molecular target: Neu5Ac(a2-6)GalNAc(b1-4)GlcNAc6S
# In short: as §1
# [28] = molecular target: Neu5Ac(a2-6)GlcNAc(b1-4)GlcNAc
# In short: as §1
# [29] = molecular target: Neu5Ac(a2-6)GlcNAc(b1-4)GlcNAc(b1-4)GlcNAc
# In short: as §1
binder,measurement,setting,value
Mermaid3 (Stilbonema majum) (protein) MGSSHHHHHHSSGLVPRGSHMAASGWLRSPQGTVVKLYRRSLSWSKADEFCKDVDGRLVVDRTADMHLFLIKNVLKEKKSRVWVGLRRTASHSRTWIWSDGTRQNEGDLDANLWLRDEPNDAAGEEECALFMYSPWEKAWGLNDYLCRGGCRNYQFICEKWIR,glycan array binding signal (z-score),[1],-0.731
same,glycan array binding signal (z-score),[2],-0.268
same,glycan array binding signal (z-score),[3],-0.531
same,glycan array binding signal (z-score),[4],-0.74
same,glycan array binding signal (z-score),[5],-0.747
same,glycan array binding signal (z-score),[6],-0.484
same,glycan array binding signal (z-score),[7],-0.751
same,glycan array binding signal (z-score),[8],-0.816
same,glycan array binding signal (z-score),[9],-0.448
same,glycan array binding signal (z-score),[10],-0.692
same,glycan array binding signal (z-score),[11],-0.009
same,glycan array binding signal (z-score),[12],-0.443
same,glycan array binding signal (z-score),[13],0.719
same,glycan array binding signal (z-score),[14],-0.539
same,glycan array binding signal (z-score),[15],-0.062
same,glycan array binding signal (z-score),[16],-0.284
same,glycan array binding signal (z-score),[17],0.359
same,glycan array binding signal (z-score),[18],-0.34
same,glycan array binding signal (z-score),[19],-0.198
same,glycan array binding signal (z-score),[20],0.016
same,glycan array binding signal (z-score),[21],-0.45
same,glycan array binding signal (z-score),[22],0.978
same,glycan array binding signal (z-score),[23],-0.578
same,glycan array binding signal (z-score),[24],-0.712
same,glycan array binding signal (z-score),[25],-0.732
same,glycan array binding signal (z-score),Neu5Ac(a2-6)GalNAc,-0.725
same,glycan array binding signal (z-score),[26],-0.594
same,glycan array binding signal (z-score),[27],-0.473
same,glycan array binding signal (z-score),[28],-0.709
same,glycan array binding signal (z-score),[29],0.677

# From the supplement of paper PMC8728848
